The assay relates to Zika (ZIKV strain MR766). The assay can be described thus: microbe, parasite or virus in culture. Particulars: Huh-7, 48 h, read-out: IC50 Zika.

`COc1ccc(C(=O)Nc2sc3c(c2C(=O)O)CCC(C)(C)C3)cc1OC` [Compound #18]: the IC50 turned out to be 3000 nM.

The values are drawn from US20210038566A1, “USE OF MODULATORS OF NEET PROTEINS FOR THE TREATMENT OF INFECTION” (ENYO PHARMA, priority 2018, published 2021).
